Test results reported in publication PMC11126606.
Results are given in words; binding and its absence hold for the method and conditions named. Binding seen in cells or lysates may run through a third protein. Some results given as binding are weak or reduced against the parent protein; the word gives no strength.

The chains behind the UniProt entries cited, without tags or fusion partners. Where a name states a change or a piece, a line headed by the entry shows the natural chain unless it says otherwise.
UniProt Q5VVQ6: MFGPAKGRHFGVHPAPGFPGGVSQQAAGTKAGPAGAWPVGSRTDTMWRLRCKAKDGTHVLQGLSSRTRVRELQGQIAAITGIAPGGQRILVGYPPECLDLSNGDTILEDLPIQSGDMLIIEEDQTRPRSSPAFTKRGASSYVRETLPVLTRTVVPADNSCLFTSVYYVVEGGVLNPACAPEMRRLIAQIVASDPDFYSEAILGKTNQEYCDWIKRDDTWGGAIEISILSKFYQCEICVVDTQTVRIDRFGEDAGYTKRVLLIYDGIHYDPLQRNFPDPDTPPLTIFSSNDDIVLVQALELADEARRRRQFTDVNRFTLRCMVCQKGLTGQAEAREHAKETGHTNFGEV
UniProt Q9ULZ3: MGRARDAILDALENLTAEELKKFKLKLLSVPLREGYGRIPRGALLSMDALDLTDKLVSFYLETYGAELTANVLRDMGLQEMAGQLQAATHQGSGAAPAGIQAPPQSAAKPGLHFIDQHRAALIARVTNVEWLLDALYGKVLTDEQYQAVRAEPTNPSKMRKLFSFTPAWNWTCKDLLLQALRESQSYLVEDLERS
UniProt P29466: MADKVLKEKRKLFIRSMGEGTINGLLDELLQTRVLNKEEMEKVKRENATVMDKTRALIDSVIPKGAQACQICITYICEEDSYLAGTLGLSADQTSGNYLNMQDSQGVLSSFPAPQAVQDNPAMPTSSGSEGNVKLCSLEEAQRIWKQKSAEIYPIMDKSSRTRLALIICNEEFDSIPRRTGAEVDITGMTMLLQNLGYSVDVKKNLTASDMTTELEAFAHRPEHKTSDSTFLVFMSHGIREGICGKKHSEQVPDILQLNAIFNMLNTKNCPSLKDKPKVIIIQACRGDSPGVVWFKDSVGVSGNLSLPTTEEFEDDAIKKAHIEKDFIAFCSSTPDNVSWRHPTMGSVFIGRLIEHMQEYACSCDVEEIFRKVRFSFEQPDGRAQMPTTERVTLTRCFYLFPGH
UniProt Q96P20: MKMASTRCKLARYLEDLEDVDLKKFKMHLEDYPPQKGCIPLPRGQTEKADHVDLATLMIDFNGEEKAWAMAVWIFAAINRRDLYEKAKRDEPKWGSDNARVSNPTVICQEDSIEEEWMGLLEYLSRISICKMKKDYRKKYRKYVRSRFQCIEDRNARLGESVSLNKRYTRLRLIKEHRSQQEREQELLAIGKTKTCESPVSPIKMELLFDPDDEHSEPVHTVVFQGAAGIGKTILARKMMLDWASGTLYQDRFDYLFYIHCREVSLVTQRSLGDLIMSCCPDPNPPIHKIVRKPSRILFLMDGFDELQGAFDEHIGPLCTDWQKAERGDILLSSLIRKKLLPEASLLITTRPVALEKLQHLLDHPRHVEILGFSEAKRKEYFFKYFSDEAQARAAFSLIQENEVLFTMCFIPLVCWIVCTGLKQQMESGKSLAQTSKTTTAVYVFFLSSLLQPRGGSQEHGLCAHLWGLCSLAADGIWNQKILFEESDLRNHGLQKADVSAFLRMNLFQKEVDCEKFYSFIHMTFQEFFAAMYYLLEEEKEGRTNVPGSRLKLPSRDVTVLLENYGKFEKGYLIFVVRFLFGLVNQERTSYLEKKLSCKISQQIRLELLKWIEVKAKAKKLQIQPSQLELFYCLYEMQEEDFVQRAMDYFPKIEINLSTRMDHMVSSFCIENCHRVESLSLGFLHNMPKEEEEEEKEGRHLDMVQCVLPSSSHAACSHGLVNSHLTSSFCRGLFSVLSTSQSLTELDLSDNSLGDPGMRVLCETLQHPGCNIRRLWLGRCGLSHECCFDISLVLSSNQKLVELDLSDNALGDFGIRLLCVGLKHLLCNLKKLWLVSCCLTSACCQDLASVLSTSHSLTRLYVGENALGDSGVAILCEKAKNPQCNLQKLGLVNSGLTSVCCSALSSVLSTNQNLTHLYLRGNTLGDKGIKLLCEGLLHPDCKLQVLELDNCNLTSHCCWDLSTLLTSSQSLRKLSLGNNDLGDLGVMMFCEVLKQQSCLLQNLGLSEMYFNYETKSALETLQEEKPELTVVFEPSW
UniProt Q8R4B8: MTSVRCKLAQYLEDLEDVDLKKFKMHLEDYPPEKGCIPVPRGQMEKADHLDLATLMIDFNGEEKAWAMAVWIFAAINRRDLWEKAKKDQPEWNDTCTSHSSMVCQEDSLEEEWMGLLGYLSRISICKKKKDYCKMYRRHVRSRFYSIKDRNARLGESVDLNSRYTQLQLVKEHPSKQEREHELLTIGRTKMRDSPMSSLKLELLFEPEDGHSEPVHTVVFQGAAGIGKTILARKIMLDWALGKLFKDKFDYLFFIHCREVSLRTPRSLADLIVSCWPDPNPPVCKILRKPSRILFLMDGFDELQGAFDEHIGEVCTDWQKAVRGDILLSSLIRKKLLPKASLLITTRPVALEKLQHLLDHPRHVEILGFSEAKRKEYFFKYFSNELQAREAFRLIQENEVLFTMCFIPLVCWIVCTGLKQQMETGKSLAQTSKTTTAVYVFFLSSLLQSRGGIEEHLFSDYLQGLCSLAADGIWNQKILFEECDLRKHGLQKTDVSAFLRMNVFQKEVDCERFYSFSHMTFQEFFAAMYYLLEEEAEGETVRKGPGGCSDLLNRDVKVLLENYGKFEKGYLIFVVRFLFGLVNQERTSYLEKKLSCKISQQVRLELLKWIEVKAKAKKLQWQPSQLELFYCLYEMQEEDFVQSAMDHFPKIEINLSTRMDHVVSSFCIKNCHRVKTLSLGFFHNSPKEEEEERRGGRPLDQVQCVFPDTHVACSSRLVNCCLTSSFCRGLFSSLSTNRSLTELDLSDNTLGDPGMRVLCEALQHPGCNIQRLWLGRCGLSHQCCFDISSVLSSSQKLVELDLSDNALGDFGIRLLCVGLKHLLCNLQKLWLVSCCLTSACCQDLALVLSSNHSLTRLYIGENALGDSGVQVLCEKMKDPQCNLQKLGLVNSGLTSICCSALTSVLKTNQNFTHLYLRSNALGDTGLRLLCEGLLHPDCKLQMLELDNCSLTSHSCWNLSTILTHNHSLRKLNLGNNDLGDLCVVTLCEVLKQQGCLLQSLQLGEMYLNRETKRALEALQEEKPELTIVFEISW

Key:
[1] = target: Myc-tagged human YOD1, full length (human) (UniProt Q5VVQ6); assay: co-IP; HEK293T cells co-transfected, 24 h; lysates in IP buffer (20 mM Tris, 0.5% Triton X-100, 10% glycerol, 150 mM NaCl, 20 mM MgCl2, 1 mM EDTA, pH 7.5); IP with anti-Myc, blot with anti-Flag
[2] = target: Myc-tagged human YOD1 C160S, catalytically inactive (human) (UniProt Q5VVQ6); assay: as above
[3] = target: T1, YOD1, endogenous mouse (mouse (endogenous in BMDMs and PMs)) (UniProt Q8CB27); assay: co-IP; endogenous proteins in mouse BMDMs or PMs infected with MRSA for 4 h; specific antibodies and protein G plus-agarose, IP buffer
T1 sequence: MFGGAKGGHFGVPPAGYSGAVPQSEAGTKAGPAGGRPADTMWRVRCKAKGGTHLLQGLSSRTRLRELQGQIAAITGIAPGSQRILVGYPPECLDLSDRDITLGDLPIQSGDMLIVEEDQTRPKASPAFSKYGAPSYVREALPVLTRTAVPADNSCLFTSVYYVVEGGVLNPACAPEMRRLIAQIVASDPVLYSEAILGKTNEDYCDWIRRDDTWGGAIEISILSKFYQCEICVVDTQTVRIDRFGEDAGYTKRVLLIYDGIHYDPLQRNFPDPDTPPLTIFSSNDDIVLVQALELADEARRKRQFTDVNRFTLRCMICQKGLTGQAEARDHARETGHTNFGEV

Row | binding [1] | binding [2] | binding [3] | Substance
1 | no binding |  |  | Flag-tagged human ASC (apoptosis-associated speck like protein containing a CARD) (from UniProt Q9ULZ3 1-195)
2 | no binding |  |  | Flag-tagged human Caspase-1 (from UniProt P29466 1-404) (enzyme)
3 | binds | binds |  | Flag-tagged human NLRP3, full length (from UniProt Q96P20 1-1036)
4 |  |  | binds | NLR-family pyrin domain-containing-3 (NLRP3), endogenous mouse (from UniProt Q8R4B8 1-1033)
